Experimental data reported in PubChem BioAssay (NCATS).
“And” between values parts separate entries of the source, which are not always exact repeats. Equal entries are not always repeated. The inconclusive results got no clear call from the source; some entries with a clear call stand among them for comparison. Potencies of inconclusive entries are doubtful fits and often do not repeat. The source made the active and inactive calls. The call rests on the fitted dose curve; in most records, active means well fitted cell-killing curve with a large enough effect; inconclusive means small, poorly fitted or top-dose-only effect, or effect the other way; inactive means no such curve, though single readings can be large or run the other way.

How the values were obtained:
[1] = Viability qHTS for spleen associated tyrosine kinase inhibitor (SYKi) naive MV4-11 cells (AID 1963823); details: MV4-11 AML viability, CellTiter-Glo luminescence, 72 h; viability (% of control): at 45 µM (top of the series); further: nearly all actives have a fitted effect of over 40% in size
Summary of the method: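 Compounds were dispensed acoustically onto plates, MV4-11 cells (SYKi-naive) added at 500 per well, and plates incubated 72 hr at 37 C. CellTiter-Glo was added and luminescence measured after 10 min.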

[2] = Viability qHTS for spleen associated tyrosine kinase inhibitor (SYKi) drug resistant MV4-11 cells (AID 1963824); further: nearly all actives have a fitted effect of over 35% in size
Summary of the method: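 CellTiter-Glo luminescence, read 10 min after reagent addition, reports viability after a 72 hr compound exposure. Cells are an MV4-11 line made resistant to SYK inhibition, seeded at 500 per well onto compound-containing plates.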
Potency means the concentration at half of the fitted maximal effect; tags describe the fitted curve by direction and shape.

COC(=O)C(C)C1CCC2(C)C(=O)C=CC(C)(O)C2C1O (stereo unspecified)
Potency [1]: inactive | Potency [2]: inactive

CC[C@H]1OC(=O)[C@H](C)C(=O)[C@H](C)[C@@H](O[C@H]2O[C@H](C)C[C@H](N(C)C)[C@H]2O)[C@](C)(OC)C[C@@H](C)C(=O)[C@H](C)[C@H]2N(CCCCn3cnc(-c4cccnc4)c3)C(=O)O[C@]12C
Potency [1]: inconclusive: 29.5 µM [cytotoxic, single point] | Potency [2]: inconclusive: 16.6 µM [cytotoxic, partial curve, poor fit]

CC1(C)CC2=C3C=CC4C5(C)CCC(O)C(C)(C)C5CCC4(C)C3(C)CCC2(C)C(O)C1 (stereo unspecified)
Potency [1]: inconclusive: 6.32 µM [cytotoxic, partial curve, poor fit] | Potency [2]: inconclusive: 7.09 µM [cytotoxic, partial curve]

CC1=CC(=O)CC(C)(C)C1CO[C@@H]1O[C@H](CO)[C@@H](O)[C@H](O)[C@H]1O (stereo partly specified)
Potency [1]: inactive | Potency [2]: inactive

O=C(O)CNC(=O)c1nc(Cl)c2ccccc2c1O
Potency [1]: inactive | Potency [2]: inactive

CC(C)(CO)[C@@H](O)C(=O)NCCCO
Potency [1]: inactive | Potency [2]: inconclusive: 0.015 µM [rising, full curve]

CCOP(=O)(Cc1ccc(C(=O)Nc2ccc(Br)cc2C#N)cc1)OCC
Potency [1]: inconclusive: 7.09 µM [cytotoxic, partial curve] | Potency [2]: inconclusive: 7.09 µM [cytotoxic, partial curve, poor fit]

C=C1CCC2C(C)(COC(C)=O)CCCC2(C)C1CCC(C)CC(=O)O (stereo unspecified)
Potency [1]: inactive | Potency [2]: inconclusive: 2.86 µM [cytotoxic, single point]

CC(NCc1ccc(OCc2cccc(F)c2)cc1)C(N)=O (stereo unspecified)
Potency [1]: inactive | Potency [2]: inconclusive: 23.1 µM [cytotoxic, partial curve, poor fit]

OCC(O)C(c1c[nH]c2ccccc12)c1c[nH]c2ccccc12 (stereo unspecified)
Potency [1]: inconclusive: 5.17 µM [cytotoxic, partial curve, poor fit] | Potency [2]: inconclusive: 1.3 µM [cytotoxic, partial curve, poor fit]

Nc1ncnc2c1ncn2[C@@H]1O[C@H](COP(=O)(O)O)[C@@H](O)[C@H]1O
Potency [1]: inactive | Potency [2]: inconclusive: 0.106 µM [cytotoxic, single point]

CC(C)(O)C1CC=C(C(=O)OCC2OC(Oc3c(O)cc(C(=O)O)cc3O)C(O)C(O)C2O)CC1 (stereo unspecified)
Potency [1]: inactive | Potency [2]: inactive

C[C@H]1C[C@H]2[C@@H]3CCC4=CC(=O)C=C[C@]4(C)[C@@]3(F)[C@@H](O)C[C@]2(C)[C@@]1(O)C(=O)COP(=O)(O)O
Potency [1]: inactive | Potency [2]: inconclusive: 8.2 µM [cytotoxic, partial curve, poor fit]

CCC(C)C1NC(=O)C2C(C)CCN2C(=O)C(CC(O)CO)OC(=O)CCNC(=O)C(C)N(C)C(=O)C(C(C)C)N(C)C1=O (stereo unspecified)
Potency [1]: inconclusive: 9.68 µM [cytotoxic, single point] | Potency [2]: inconclusive: 4.85 µM [cytotoxic, single point]

CC1(C)O[C@H]2CC(=O)OC[C@@]23C1=C(O)C(=O)[C@]1(C)C3CC[C@@]2(C)[C@H](c3ccoc3)OC(=O)[C@H]3O[C@]321 (stereo partly specified)
Potency [1]: inconclusive: 11.2 µM [cytotoxic, partial curve, poor fit] | Potency [2]: inactive

COc1ccc(-n2[nH]c3c(cnc4ccccc43)c2=O)cc1
Potency [1]: inconclusive: 14.6 µM [cytotoxic, partial curve] | Potency [2]: inconclusive: 29.1 µM [cytotoxic, single point]

Clc1cc(Cl)c2c(c1)N=C1CCCCCN1C2
Potency [1]: inconclusive: 18.4 µM [cytotoxic, partial curve, poor fit] | Potency [2]: inconclusive: 16.4 µM [cytotoxic, partial curve]

CC(C)c1cccc2c(-c3ccccc3)cc(-c3ccc(-c4ccc(C(=O)O)cc4)[nH]3)nc12
Potency [1]: inconclusive: 1.3 µM [rising, full curve, poor fit] | Potency [2]: inconclusive: 0.731 µM [rising, full curve]

CCCCN(CCCC)C(C(N)=O)c1ccc(OC)cc1 (stereo unspecified)
Potency [1]: inconclusive: 18.8 µM [cytotoxic, single point] | Potency [2]: inconclusive: 21.1 µM [cytotoxic, partial curve, poor fit]

C=CC(C)(C)O[C@@H]1O[C@H](CO[C@@H]2OC[C@](O)(CO)[C@H]2O)[C@@H](O)[C@H](O)[C@H]1O
Potency [1]: inactive | Potency [2]: inactive

C/C(=C/C=C\C=C\Cc1cnco1)[C@@H](O)C(C)(C)C(N)=O
Potency [1]: inconclusive: 25.9 µM [cytotoxic, single point] | Potency [2]: inconclusive: 18.4 µM [cytotoxic, partial curve]

C=C1CCC2(C(=O)OC3OC(CO)C(O)C(O)C3O)CCC3(C)C(=CCC4C5(C)CCC(OC6OC(CO)C(OC7OC(C)C(O)C(O)C7O)C(OC7OCC(O)C(O)C7O)C6O)C(C)(C)C5CCC43C)C2C1 (stereo unspecified)
viability (% of control) [1]: inactive: 89.9% [at 9.25 µM] | viability, % of control [2]: inactive: 105% [at 9.25 µM]

C=CC(=O)Nc1cccc(CN2C(=O)N(c3c(Cl)c(OC)cc(OC)c3Cl)Cc3cnc(NCCCCN(CC)CC)nc32)c1
Potency [1]: inconclusive: 2.06 µM [cytotoxic, full curve] | Potency [2]: active: 3.66 µM

COc1ccc(OC)c(C2C(C#N)=C(N)Oc3n[nH]c(-c4ccc5ccccc5c4)c32)c1 (stereo unspecified)
Potency [1]: inconclusive: 23.1 µM [cytotoxic, partial curve, poor fit] | Potency [2]: inconclusive: 14.6 µM [cytotoxic, partial curve]

CCOC(=O)[C@H](CCc1ccccc1)N[C@@H](C)C(=O)N1CCC[C@H]1C(=O)O
Potency [1]: inactive | Potency [2]: inconclusive: 0.0168 µM [cytotoxic, full curve, poor fit]

COc1ccc(C)c2sc(NC(=O)c3ccncc3)nc12
Potency [1]: inconclusive: 11.6 µM [cytotoxic, partial curve] | Potency [2]: inconclusive: 18.4 µM [cytotoxic, partial curve, poor fit]

CC(C)Cc1ccc(C(C)C(=O)OCc2ccccn2)cc1 (stereo unspecified)
Potency [1]: inconclusive: 23.7 µM [cytotoxic, single point] | Potency [2]: inconclusive: 15 µM [cytotoxic, partial curve]

O=C1NS(=O)(=O)c2ccccc21
Potency [1]: inactive | Potency [2]: inactive

CCS(=O)(=O)c1ccc2oc(-c3ccc4ccccc4c3)nc2c1
Potency [1]: inconclusive: 14.8 µM [cytotoxic, partial curve] | Potency [2]: inconclusive: 13.2 µM [cytotoxic, partial curve]

COc1c2c(c(C)c3c1C(=O)OC3)OC1(C)CC(O)C34OC(OC)(OC3(C)C)C(O)CC4(C)C1C2 (stereo unspecified)
Potency [1]: inconclusive: 0.0022 µM [rising, full curve, poor fit] | Potency [2]: inactive

O=C(O)C[C@H]1CCC(=O)[C@@H]1C/C=C\CCOC1OC(CO)C(O)C(O)C1O (stereo partly specified)
Potency [1]: inactive | Potency [2]: inactive

CCCCCCCCCCCCCCCC(=O)OC(C)C
Potency [1]: inconclusive: 0.376 µM [rising, full curve] | Potency [2]: inconclusive: 0.596 µM [rising, full curve]

O=C(CO)[C@@H](O)[C@H](O[C@@H]1O[C@H](CO)[C@H](O)[C@H](O)[C@H]1O)[C@H](O)CO
Potency [1]: inactive | Potency [2]: inactive

Cc1c(CN2CCN(C(=O)[C@H](C)O)CC2)sc2c(N3CCOCC3)nc(-c3cnc(N)nc3)nc12
Potency [1]: inconclusive: 0.468 µM [cytotoxic, full curve, poor fit] | Potency [2]: inconclusive: 0.934 µM [cytotoxic, full curve]

CC(C)(C)C(=O)CN1C(=O)[C@H](NC(=O)Nc2cccc(C(=O)O)c2)CN(C2CCCCC2)c2ccccc21
Potency [1]: inconclusive: 20.6 µM [cytotoxic, partial curve] and inconclusive: 20.9 µM [cytotoxic, partial curve] | Potency [2]: inconclusive: 16.4 µM [cytotoxic, partial curve, poor fit] and inconclusive: 20.9 µM [cytotoxic, partial curve]

CC(C)Nc1nc(Nc2ccccc2)nc(-c2ccccc2)n1
Potency [1]: inconclusive: 20.6 µM [cytotoxic, partial curve] | Potency [2]: inconclusive: 20.6 µM [cytotoxic, single point]

C=C1CCc2occ(C)c2[C@H]2[C@H]1[C@@]13O[C@@]1(C[C@@H](C)[C@H]3OC(C)=O)[C@H]1O[C@@]21C
Potency [1]: inconclusive: 8.05 µM [cytotoxic, partial curve] | Potency [2]: inconclusive: 6.4 µM [cytotoxic, partial curve]

O=C1Cc2c([nH]c3ccc(Br)cc23)-c2ncccc2N1
Potency [1]: inconclusive: 11.6 µM [cytotoxic, partial curve, poor fit] | Potency [2]: inconclusive: 6.51 µM [cytotoxic, full curve]

CCC(=O)Nc1ccc(O)cc1
Potency [1]: inactive | Potency [2]: inactive

COC(=O)c1cc(CN2CCN(C(=N)N)CC2)cc(C(=O)N2CCN(C(=O)c3ccc(C(=N)N)cc3)CC2)c1
Potency [1]: inactive | Potency [2]: inactive

Nc1cc(-c2ccncc2)c[nH]c1=O
Potency [1]: inactive | Potency [2]: inactive

COC(=O)C1=CO[C@@H](O)[C@@H]2C(CO)=CC[C@H]12
Potency [1]: inconclusive: 20.6 µM [cytotoxic, partial curve] | Potency [2]: inconclusive: 16.4 µM [cytotoxic, partial curve]

Cn1nc(C(C)(C)C)cc1C(=O)NC(Cc1cccc(Cl)c1)C(=O)NCC#N (stereo unspecified)
Potency [1]: inconclusive: 8.2 µM [cytotoxic, partial curve, poor fit] | Potency [2]: inconclusive: 18.4 µM [cytotoxic, partial curve, poor fit]
